Test results taken from PubChem BioAssay AID1508642 (National Center for Advancing Translational Sciences (NCATS), 2021).
The whole screen tested about 43,000 compounds, of which about 200 (0.47%) were called active. About 12% were inconclusive and are not listed. The call rests on the fitted dose curve; in most records, active means well fitted cell-killing curve with a large enough effect; inconclusive means small, poorly fitted or top-dose-only effect, or effect the other way; inactive means flat fitted curve, though single readings scatter. The list shows a part of the results.

Assay: Cell viability qHTS assay in S16 Pmp22-F2sN cells; further: nearly all actives have a fitted effect of over 65% in size
Conditions: S16 Pmp22-F2sN Schwann cells (luciferase reporters placed in the Pmp22 gene) viability, CellTiter-Glo, 24 h; series mostly up to 57.5 µM; activity change, negative = cytotoxicity: at the top concentration
Method in brief: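 Seed 500-1,000 S16 Pmp22-F2sN cells per well in phenol-red-free DMEM with 10% heat-inactivated FBS; pin-add 23 nL compound; incubate 24 h at 37C; add CellTiter-Glo, wait 15 min protected from light; read luminescence.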
On the % scale 0 is the no-effect control and ±100 the full control effect.

Q: With `Cc1cccc(C)c1NC(=O)c1nc(S(C)(=O)=O)ncc1N(Cc1ccc(F)cc1)Cc1ccco1` as the compound, how does the “activity change, negative = cytotoxicity” value read?
A: The value was inactive: 2.04%.

Q: For `O=c1c2sc3ccccc3c2n(Cc2ccccc2Cl)c(=O)n1Cc1ccccc1`, which “activity change, negative = cytotoxicity” value is on record?
A: The value was inactive: -4.98%.

Q: Which “activity change, negative = cytotoxicity” value does the source give for `Cc1ccc(C)n1-c1c(C(=O)NCC(C)c2ccccc2)sc2ncccc12` (configuration not stated) here?
A: Its value is inactive: -19.9%.

Q: With `Cc1cc(-c2ccc(C)c(S(=O)(=O)Nc3ccccc3C(F)(F)F)c2)on1` as the compound, how does the “activity change, negative = cytotoxicity” value read?
A: Its value is inactive: -2.94%.

Q: Which “activity change, negative = cytotoxicity” value does the source give for `COc1ccc(C(=O)N(Cc2ccc(N(C)C)cc2)Cc2ccco2)cc1Cl` here?
A: Its value is inactive: 6.64%.

Q: With `COc1ccccc1CNC(=O)C1CCN(S(=O)(=O)c2c(C)noc2/C=C/c2c(C)cc(C)cc2C)CC1` as the compound, how does the “activity change, negative = cytotoxicity” value read?
A: Its value is inactive: 4.51%.

Q: Which “activity change, negative = cytotoxicity” value does the source give for `O=C(Nc1ccc2nc(SCCOc3ccccc3)sc2c1)c1cccs1` here?
A: The value was inactive: 1.6%.

Q: For `CN1CCN(C(=O)c2ccc3c(c2)N(Cc2cccc(Cl)c2)C(=O)c2ccccc2S3(=O)=O)CC1`, which “activity change, negative = cytotoxicity” value is on record?
A: Its value is inactive: 1.49%.

Q: For `COc1cccc(CNC(=O)CSc2ncc3c(n2)-c2cc(Cl)ccc2N(C)S3(=O)=O)c1`, which “activity change, negative = cytotoxicity” value is on record?
A: Its value is inactive: 4.9%.

Q: With `CCc1ccc(NC(=O)c2ccc(F)c(S(=O)(=O)NC3CCCCCC3)c2)cc1` as the compound, how does the “activity change, negative = cytotoxicity” value read?
A: The value was inactive: -21.2%.

Q: With `Cc1coc2c(C)c3oc(=O)c(CC(=O)NCc4ccccc4)c(C)c3cc12` as the compound, how does the “activity change, negative = cytotoxicity” value read?
A: Its value is inactive: -13.6%.

Q: With `Cc1c(Cl)cccc1NC(=O)CN1C(=O)COc2ccc(S(=O)(=O)N3CCCCCC3)cc21` as the compound, how does the “activity change, negative = cytotoxicity” value read?
A: Its value is inactive: -1.4%.

Q: With `O=C(CCC1CCCC1)N1CCc2c([nH]c3ccccc23)C1c1ccc(Cl)cc1` (configuration not stated) as the compound, how does the “activity change, negative = cytotoxicity” value read?
A: Its value is inactive: -11%.

Q: With `Cc1ccc(-n2nnc(-c3nsc(NC(=O)c4ccccc4)n3)c2C)cc1` as the compound, how does the “activity change, negative = cytotoxicity” value read?
A: The value was inactive: -0.56%.

Q: With `CCc1cccc(C)c1NS(=O)(=O)c1cc(-c2cc(C)no2)ccc1C` as the compound, how does the “activity change, negative = cytotoxicity” value read?
A: Its value is inactive: -3.24%.

Q: Which “activity change, negative = cytotoxicity” value does the source give for `CCOc1ccc(OCC(=O)NCCS(=O)(=O)N2CCN(c3ccc(F)cc3)CC2)cc1` here?
A: The value was inactive: -7.82%.

Q: Which “activity change, negative = cytotoxicity” value does the source give for `Cc1ccc(-n2nc3ccc(NC(=O)c4oc5ccc(C)cc5c4C)cc3n2)cc1` here?
A: The value was inactive: 7.59%.

Q: With `CCOC(=O)C1CCCN(S(=O)(=O)c2ccc(N3CCCCS3(=O)=O)cc2)C1` (configuration not stated) as the compound, how does the “activity change, negative = cytotoxicity” value read?
A: The value was inactive: -12.6%.

Q: For `Cc1cc(C(F)F)n2nc(C(=O)Nc3cc(Cl)ccc3C)nc2n1`, which “activity change, negative = cytotoxicity” value is on record?
A: The value was inactive: 0.454%.

Q: Which “activity change, negative = cytotoxicity” value does the source give for `O=C(Nc1ccccc1F)c1nc(SCc2ccc(F)cc2)ncc1Cl` here?
A: Its value is inactive: 11.2%.

Q: Which “activity change, negative = cytotoxicity” value does the source give for `CCCOc1ccccc1C(=O)N1CCCCC1CCN1CCOCC1` (configuration not stated) here?
A: The value was inactive: 15.4%.

Q: With `CCN(C(=O)Cn1ncc2c(=O)oc3ccc(C)cc3c21)c1cc(OC)ccc1OC` as the compound, how does the “activity change, negative = cytotoxicity” value read?
A: Its value is inactive: 0.207%.

Q: With `Cc1cc(C)cc(-n2c(SCC(=O)NCc3ccco3)nc3c([nH]c4ccccc43)c2=O)c1` as the compound, how does the “activity change, negative = cytotoxicity” value read?
A: The value was inactive: 5.15%.

Q: With `CC(C)NC(=O)CCn1c(SCc2c(F)cccc2Cl)nc2c(sc3ccccc32)c1=O` as the compound, how does the “activity change, negative = cytotoxicity” value read?
A: The value was inactive: -1.86%.

Q: For `CCCCn1c(SCC(=O)Nc2cccc(OC)c2)nc2c(sc3ccccc32)c1=O`, which “activity change, negative = cytotoxicity” value is on record?
A: The value was inactive: -3.14%.

Q: Which “activity change, negative = cytotoxicity” value does the source give for `COc1ccccc1N1CCN(C(=O)C2CCN(S(=O)(=O)c3c(C)noc3/C=C/c3ccc(C)cc3)CC2)CC1` here?
A: Its value is inactive: 6.97%.

Q: Which “activity change, negative = cytotoxicity” value does the source give for `Cc1cccc(Cc2cnc(NC(=O)C3Cc4ccc(C)cc4C(=O)O3)s2)c1` (configuration not stated) here?
A: Its value is inactive: -0.259%.

Q: For `CCOC(=O)c1cc(-c2ccc(C)cc2)n(CCC(=O)Nc2nc3c(C)cccc3s2)c1C`, which “activity change, negative = cytotoxicity” value is on record?
A: Its value is inactive: -3.21%.

Q: For `Cc1cc(-n2c(SCC(=O)NCc3ccccc3)nc3ccsc3c2=O)ccc1Cl`, which “activity change, negative = cytotoxicity” value is on record?
A: Its value is inactive: -3.82%.

Q: For `COc1ccc(NC(=O)NCCc2c(C)nn(C)c2C)c(OC)c1`, which “activity change, negative = cytotoxicity” value is on record?
A: Its value is inactive: 11.8%.

Q: For `O=C(c1ccc2c(c1)N(Cc1ccccc1)C(=O)c1ccccc1S2(=O)=O)N1CCCC1`, which “activity change, negative = cytotoxicity” value is on record?
A: The value was inactive: 4.43%.

Q: For `CCC(Sc1nc2c(sc3ccccc32)c(=O)n1CCc1ccccc1)C(=O)N(CC)CC` (configuration not stated), which “activity change, negative = cytotoxicity” value is on record?
A: Its value is inactive: 6.8%.

Q: For `CCCCCC(=O)N1c2ccccc2C(C)(c2ccccc2)CC1(C)C` (configuration not stated), which “activity change, negative = cytotoxicity” value is on record?
A: The value was inactive: 6.08%.

Q: With `O=C(c1ccccc1Br)N(Cc1ccco1)C1CCS(=O)(=O)C1` (configuration not stated) as the compound, how does the “activity change, negative = cytotoxicity” value read?
A: The value was inactive: 6.69%.

Q: For `COc1ccc(Cn2c(C(=O)O)c(CNCC(C)c3ccccc3)c3ccc(OC)cc32)cc1` (configuration not stated), which “activity change, negative = cytotoxicity” value is on record?
A: The value was inactive: -10.9%.

Q: For `COc1ccc(NC(=O)CN2C(=O)C(c3ccc(C(C)(C)C)cc3)=NC2(C)C)cc1Cl`, which “activity change, negative = cytotoxicity” value is on record?
A: The value was inactive: -0.822%.

Q: For `COc1cccc(CCNC(=O)Cn2c(-c3cccs3)cc3ccccc32)c1`, which “activity change, negative = cytotoxicity” value is on record?
A: The value was inactive: 6.87%.

Q: Which “activity change, negative = cytotoxicity” value does the source give for `CC(=O)c1ccc(N2CCN(c3ccc(NC(=O)c4cccs4)cc3C(=O)O)CC2)cc1` here?
A: The value was inactive: -2.36%.

Q: For `Cc1ccc(NC(=O)CSc2nnc3nc(C)cc(C)n23)cc1`, which “activity change, negative = cytotoxicity” value is on record?
A: Its value is inactive: -16.5%.

Q: With `O=c1c2ccccc2n2c(-c3ccccc3O)nnc2n1Cc1ccc(F)cc1` as the compound, how does the “activity change, negative = cytotoxicity” value read?
A: The value was inactive: -0.915%.

Q: With `Cc1cccc(Cn2ccn(Cc3ccc(Cl)cc3)c(=O)c2=O)c1` as the compound, how does the “activity change, negative = cytotoxicity” value read?
A: The value was inactive: 1.76%.

Q: With `CCN(CC)C(=O)c1sc(NC(=O)c2nc3ncccn3n2)c(C(=O)OC)c1C` as the compound, how does the “activity change, negative = cytotoxicity” value read?
A: Its value is inactive: -9.66%.

Q: For `CCOC(=O)c1ccccc1NC(=O)NC(C)c1c(-n2cccc2)sc(C)c1C` (configuration not stated), which “activity change, negative = cytotoxicity” value is on record?
A: Its value is inactive: -4.35%.

Q: With `Cc1ccc(C)c(NC(=O)CN2C(=O)c3cccc4cccc2c34)c1` as the compound, how does the “activity change, negative = cytotoxicity” value read?
A: Its value is inactive: 10.8%.

Q: For `COc1ccc(C(CC(=O)O)NC(=O)c2cc3ccccc3oc2=O)cc1OC` (configuration not stated), which “activity change, negative = cytotoxicity” value is on record?
A: The value was inactive: 5.89%.

Q: With `Cc1ccc(S(=O)(=O)c2cnc(SCC(=O)Nc3cccc(Cl)c3)nc2N)cc1C` as the compound, how does the “activity change, negative = cytotoxicity” value read?
A: The value was inactive: 5.34%.

Q: Which “activity change, negative = cytotoxicity” value does the source give for `O=C(Nc1cccc2cccnc12)c1ccccc1[N+](=O)[O-]` here?
A: The value was inactive: -1.83%.
